Out of some 310,000 compounds screened, about 14,000 (4.5%) showed an effect of 50% or more. Effects have a minus sign here. This is one part of the list.
molecular target: human ether-à-go-go-related gene (hERG) potassium channel (human, UniProt Q12809); assay: primary screen, population patch clamp on CHO cells stably expressing hERG
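Note: peak tail current of the secondary pulse compared with the same well before compound.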

human ether-à-go-go-related gene (hERG) potassium channel, sequence (Q12809 whole entry, looked up): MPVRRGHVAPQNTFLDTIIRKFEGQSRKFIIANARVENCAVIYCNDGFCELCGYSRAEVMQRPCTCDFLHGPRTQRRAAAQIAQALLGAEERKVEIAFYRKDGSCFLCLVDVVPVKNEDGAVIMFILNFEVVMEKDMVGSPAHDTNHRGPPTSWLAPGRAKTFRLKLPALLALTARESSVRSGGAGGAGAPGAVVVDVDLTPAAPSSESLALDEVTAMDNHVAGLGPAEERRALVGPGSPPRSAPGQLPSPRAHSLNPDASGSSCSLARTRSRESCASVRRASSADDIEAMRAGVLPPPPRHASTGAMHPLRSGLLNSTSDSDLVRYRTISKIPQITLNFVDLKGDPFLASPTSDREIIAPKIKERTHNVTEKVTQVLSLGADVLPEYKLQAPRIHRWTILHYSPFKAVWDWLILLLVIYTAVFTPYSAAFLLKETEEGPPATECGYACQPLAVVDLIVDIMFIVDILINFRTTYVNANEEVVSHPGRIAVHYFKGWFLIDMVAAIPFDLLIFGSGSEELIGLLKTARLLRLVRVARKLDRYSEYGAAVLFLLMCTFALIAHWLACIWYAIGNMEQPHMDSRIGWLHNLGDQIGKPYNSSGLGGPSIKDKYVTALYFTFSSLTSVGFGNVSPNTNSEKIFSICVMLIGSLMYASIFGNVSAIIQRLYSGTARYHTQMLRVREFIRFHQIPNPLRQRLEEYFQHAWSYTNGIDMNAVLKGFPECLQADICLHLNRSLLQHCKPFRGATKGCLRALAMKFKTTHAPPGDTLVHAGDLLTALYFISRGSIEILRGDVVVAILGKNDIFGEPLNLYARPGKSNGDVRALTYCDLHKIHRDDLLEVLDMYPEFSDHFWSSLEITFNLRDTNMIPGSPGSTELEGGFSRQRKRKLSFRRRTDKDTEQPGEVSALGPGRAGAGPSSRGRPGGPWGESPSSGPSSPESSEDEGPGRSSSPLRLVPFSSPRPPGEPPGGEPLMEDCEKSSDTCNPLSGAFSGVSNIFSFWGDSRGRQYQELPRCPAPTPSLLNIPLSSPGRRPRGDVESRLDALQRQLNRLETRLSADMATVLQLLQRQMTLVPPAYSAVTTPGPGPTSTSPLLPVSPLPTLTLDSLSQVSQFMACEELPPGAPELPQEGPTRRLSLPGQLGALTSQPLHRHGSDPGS

Row | Structure (SMILES) | hERG current change (%, negative = inhibition) at 10uM
1 | O=C(NNc1cc(N2CCCC2)nc(N2CCCC2)n1)c1ccc([N+](=O)[O-])cc1 | -47%
2 | CCN=c1scc(-c2cccs2)n1/N=C/c1cc(OC)ccc1O | 0.136%
3 | Cc1ccc(S(=O)(=O)N2CCN(C3CC(=O)N(Cc4ccccc4)C3=O)CC2)cc1C (stereo not drawn) | -22.3%
4 | Cc1ccc(C(=O)CC2(O)C(=O)N(Cc3ccccc3Cl)c3ccccc32)o1 (stereo not drawn) | -7.92%
5 | COc1ccc(CCCCCCOCc2ccccc2)cc1 | 11%
6 | Cc1ccc(C(=O)COC(=O)c2cn3ccccc3n2)cc1 | 29.6%
7 | CCN(CC)S(=O)(=O)c1ccc(C(=O)N(c2ccc(C)cc2)C2C=CS(=O)(=O)C2)cc1 (stereo not drawn) | -8.66%
8 | COc1ccc(CCNC(=O)Cn2nnc(C(=O)Nc3cc(C)ccc3C)c2N)cc1OC | 10.9%
9 | O=C(NCc1cccnc1)C(=O)Nc1ccc2c(c1)OCO2 | 16.2%
10 | O=C1C2C3C=CC(C3)C2C(=O)N1c1ccc2c(c1)CCC2 (stereo not drawn) | -7.03%
11 | COc1ccc(C(=O)Cn2c(Br)nc3c2c(=O)n(C)c(=O)n3C)cc1OC | 9.27%
12 | COc1cccc(-c2nn(C)c3sc(C(=O)N4CCN(c5ccccc5)CC4)cc23)c1 | 16.2%
13 | O=C(OCCCN=C1NS(=O)(=O)c2ccccc21)C1CC(=O)N(c2ccc(Cl)cc2)C1 (stereo not drawn) | -58.7%
14 | O=C(COC(=O)CNC(=O)c1ccccc1Cl)Nc1ncc(C(F)(F)F)cc1Cl | -1.76%
15 | O=C(Nc1ccc(S(=O)(=O)N2CCCCC2)cc1)C1CC(=O)N(Cc2ccccc2)C1 (stereo not drawn) | 8.94%
16 | CCOc1ccc2oc(C(=O)NC(C)(C)CC)c(C)c2c1 | -3%
17 | Cc1cc(C(=O)Nc2cccnc2)no1 | 7.68%
18 | CC(C)(C)NC(=O)Cn1nnc(-c2ccc(Cl)cc2)n1 | 2.32%
19 | Cc1nn(C)c(C)c1S(=O)(=O)N(CC(=O)NCCCN1CC(C)CC(C)C1)c1ccc(C(C)C)cc1 (stereo not drawn) | -66.4%
20 | CC(=O)Nc1ccc(NC(=O)CSc2ncc(C(=O)Nc3ccc(F)cc3)c(=O)n2C)cc1 | -23.7%
21 | CCOC(=O)N1CCN(C(=O)CSc2ncccn2)CC1 | 5.56%

Row | Structure (SMILES) | hERG current change (%, negative = inhibition) at 10uM
22 | CCCNC(=O)c1c(N)n(CC2CCCO2)c2nc3ccccc3nc12 (stereo not drawn) | -2.42%
23 | COC(=O)Nc1ccc(S(=O)(=O)N2CCC(C(=O)N3CCC(C)CC3)CC2)cc1 | 9.21%
24 | O=C(CF)NC(Nc1cccc2cccnc12)C(Cl)(Cl)Cl (stereo not drawn) | -5.95%
25 | O=C(Nc1cccc(-c2nc3cc(Cl)ccc3o2)c1)C1CCCO1 (stereo not drawn) | -20.7%
26 | O=C(Nc1ccccc1N1CCCC1)c1ccc(F)c(S(=O)(=O)N2CCOCC2)c1 | -22.5%
27 | Oc1ccc(Oc2ccc3c(C(F)(F)F)cc(C(F)(F)F)nc3n2)cc1 | 6.5%
28 | CC1CCCN(CCSc2ccc(Cl)cc2)C1.O=C(O)C(=O)O (stereo not drawn) | -41.3%
29 | CC1OC(C)(C)OC1C1CNc2nc(NC(=O)C(C)(C)C)[nH]c(=O)c2N1C(=O)c1cccnc1 (stereo not drawn) | 8.96%
30 | O=C1c2cccc3c([N+](=O)[O-])ccc(c23)C(=O)N1CCc1ccccn1 | 1.72%
31 | Cc1ccc(N2C(=O)CC(Sc3ncn[nH]3)C2=O)cc1C (stereo not drawn) | 14.2%
32 | Cc1cc(=O)oc2cc(OCC(=O)c3ccc4c(c3)NC(=O)CO4)ccc12 | 17.2%
33 | CCCCOc1ccc(-c2nnc(N)s2)cc1 | 2.84%
34 | CCCCCn1c(N2CCC(Cc3ccccc3)CC2)nc2c1c(=O)[nH]c(=O)n2C | -11%
35 | CCOCCCNC(=O)C(c1ccccc1)N(Cc1cccs1)C(=O)CNC(=O)c1ccccc1 (stereo not drawn) | -7.15%
36 | CC(=O)Nc1c(O)nc(SC/C=C/CSc2nc(O)c(NC(C)=O)c(=O)[nH]2)[nH]c1=O | 17%
37 | Cc1ccc(NC(=O)C2CC(=O)n3c(nc4ccccc43)N2)cc1C (stereo not drawn) | 2.55%
38 | CSc1nc2ccccc2c(=O)n1C1CCCCC1 | 12.2%
39 | CCOc1ccc(C(=O)C2CCN(C(=O)c3ccc([N+](=O)[O-])cc3)CC2)cc1 | -79.9%
40 | CCOc1ccc(NC(=O)COC(=O)c2cc([N+](=O)[O-])ccc2N2CCOCC2)cc1 | -43.8%
41 | c1ccc2c(CCNC3=NCCC3)c[nH]c2c1 | 11.7%
42 | COc1ccc(C2(CNC(=O)Cc3ccc(OC)c(OC)c3)CCCC2)cc1 | -16.8%

— paper PMC4336329 (PLoS ONE, 2015)
